# Experimental data taken from the supplement of paper PMC10338343.
# ± gives the standard deviation. The entries are a selection whose mix differs from that of the whole data set.
# Test system: MIWI (PIWIL1) piRISC loaded with L1MC piRNA (30 nt)
# Test: pre-steady-state target cleavage rate (min^-1); MIWI and MILI are mouse PIWI proteins and EfPiwi is from a freshwater sponge; tags in brackets are library labels; higher = faster piRNA-guided slicing of the target
# Details: guide: L1MC piRNA 5'p-UAACUAAAUACUAUGCAAGCUGUAGGUCCU; auxiliary factor: 500 nM mouse GTSF1
# Outline: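 In HEPES–potassium acetate buffer at 33 °C, […] transcribed, DNA-blocked target RNA library was mixed with 1 nM active affinity-purified piRISC carrying one synthetic guide, with or without 500 nM GTSF1 partner protein, for 0–8 or 0–960 min. Uncleaved targets were sequenced and normalised to depth and to weakly complementary targets; three trials were pooled and k3 was capped at 0.0001 min^-1. The pre-steady-state cleavage rate followed from a burst-and-steady-state fit.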
# 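Also: 1 nM active piRISC with 0.1 nM target library at 33 °C single turnover.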
row,Sequence,pre-steady-state target cleavage rate
1,UCCUCCUACUGCUUGCAUAGUAUUUUCAAA,0.14 ± 0.024
2,UGGACCUACAGCUUCGUUAGUAUUUAGUAA,0.0272 ± 0.0054
3,UCGACCUACAGCUUGCAUAGAUUUUAGUAA,0.124 ± 0.023
4,UCCACCUACAGCAUGCAUAGUAUUUAGAAA,0.462 ± 0.065
5,UGGACCUACAGCUUGCAAUGUAUUUAGAAA,0.0549 ± 0.0084
6,UCCACCUACAGCUUGCAUAGUAUAUAGAAA,0.289 ± 0.055
7,UCCUGGAACAGCUACGAUAGUAUUUAGUUA,0.0171 ± 0.0039
8,UCGACCUAGUGCUUGCAUAGUAUUUUCAAA,0.139 ± 0.025
9,AGGACCUUGAGCUUGCAUAGUAUUUUCAAA,0.0368 ± 0.01
10,AGGACCUACAGCUUCCAUAGAAUUUAGUUA,0.0697 ± 0.022
11,UCCUGGAUGUGCUUCCAUAGUAUUUAGUAA,0.00555 ± 0.0037
12,UCCACCUACAGCUUGCAUAGUAUAAUGUAA,0.143 ± 0.031
13,UGGACCUACAGCUUGCAUAGAUAUUUAGUUA,0.0054 ± 0.003
14,UCCUGGAUGUGCUUGCAUAGUUUAUAGUUA,0.00493 ± 0.0041
15,AGGACCUACAGCUUGCUAAGUAUUUUCAAA,0.0205 ± 0.0097
16,UCGACCUACAGCUUCCAUACUAUUUAGUUA,0.0259 ± 0.01
17,AGCACCUACAGCUUGCAUAGUAUUUAGAUA,1.01 ± 0.15
18,UCCUGGAUGUGCAUGCAUAGAAUUUAGUUA,0.00471 ± 0.0043
19,UGGACCUACAGGAAGCAUAGUAUUUACAAA,0.104 ± 0.023
20,UCCUGCUACAGCUUGCAUAGAUUUUACAAA,0.00782 ± 0.0045
21,UCCACCUACAGCUUGCAUUCUAUUUUCAAA,0.0152 ± 0.0073
22,UCCACCUACACGAUGCAUAGUAUUUACAAA,0.221 ± 0.044
23,UCCUGGAUGUCCUUGACAUAGUAUUUAGUUA,0.00964 ± 0.0055
24,UGGACCUACAGCUUGCUUAGUAUUUUCAAA,0.0862 ± 0.016
